# The list shows a part of the results.
# How the values were obtained:
# Experiment in all cases: glycan array binding signal (z-score within array); higher = stronger binding
# Conditions in all cases: glycan notation: IUPAC condensed, linker removed
# [1] = target: Fuc(a1-2)Gal(b1-4)[Fuc(a1-3)]GlcNAc
# Outline: (§1)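 From the Consortium for Functional Glycomics database, 3228 arrays were curated, keeping only those whose protein sequence was available. Binding is given as a within-array Z-score averaged across arrays sharing a protein sequence and across linkers. Negative Z-scores can be read as non-binding.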
# [2] = target: Fuc(a1-2)Gal(b1-4)[Fuc(a1-3)]GlcNAc(b1-2)Man(a1-3)[Fuc(a1-2)Gal(b1-4)[Fuc(a1-3)]GlcNAc(b1-2)Man(a1-6)]Man(b1-4)GlcNAc(b1-4)[Fuc(a1-6)]GlcNAc
# Outline: as §1
# [3] = target: Fuc(a1-2)Gal(b1-4)[Fuc(a1-3)]GlcNAc(b1-2)[Fuc(a1-2)Gal(b1-4)[Fuc(a1-3)]GlcNAc(b1-4)]Man(a1-3)[Fuc(a1-2)Gal(b1-4)[Fuc(a1-3)]GlcNAc(b1-2)Man(a1-6)]Man(b1-4)GlcNAc(b1-4)GlcNAc
# Outline: as §1
# [4] = target: Fuc(a1-2)Gal(b1-4)[Fuc(a1-3)]GlcNAc(b1-3)Gal(b1-4)[Fuc(a1-3)]GlcNAc
# Outline: as §1
# [5] = target: Fuc(a1-2)Gal(b1-4)[Fuc(a1-3)]GlcNAc(b1-3)Gal(b1-4)[Fuc(a1-3)]GlcNAc(b1-3)Gal(b1-4)[Fuc(a1-3)]GlcNAc
# Outline: as §1
# [6] = target: Fuc(a1-2)Gal(b1-4)[Fuc(a1-3)]GlcNAc(b1-3)GalNAc
# Outline: as §1
# [7] = target: Fuc(a1-2)Gal(b1-4)[Fuc(a1-3)]GlcNAc(b1-3)[Neu5Ac(a2-6)Gal(b1-4)GlcNAc(b1-6)]Gal(b1-4)Glc
# Outline: as §1
# [8] = target: Fuc(a1-2)Gal3S(b1-4)GlcNAc
# Outline: as §1
# [9] = target: Fuc(a1-2)Gal6S(b1-3)GlcNAc
# Outline: as §1
# [10] = target: Fuc(a1-2)Gal6S(b1-3)GlcNAc6S
# Outline: as §1
# Fuc(a1-2)Gal6S(b1-4)Glc = target: Fuc(a1-2)Gal6S(b1-4)Glc
# Outline: as §1
# [11] = target: Fuc(a1-2)Gal6S(b1-4)Glc6S
# Outline: as §1
# Fuc(a1-2)[Gal(a1-3)]Gal = target: Fuc(a1-2)[Gal(a1-3)]Gal
# Outline: as §1
# [12] = target: Fuc(a1-2)[Gal(a1-3)]Gal(b1-3)GalNAc
# Outline: as §1
# [13] = target: Fuc(a1-2)[Gal(a1-3)]Gal(b1-3)GalNAc(b1-3)Gal(a1-4)Gal(b1-4)Glc
# Outline: as §1
# [14] = target: Fuc(a1-2)[Gal(a1-3)]Gal(b1-3)GlcNAc
# Outline: as §1
# [15] = target: Fuc(a1-2)[Gal(a1-3)]Gal(b1-3)GlcNAc(b1-2)Man(a1-3)[Fuc(a1-2)[Gal(a1-3)]Gal(b1-3)GlcNAc(b1-2)Man(a1-6)]Man(b1-4)GlcNAc(b1-4)GlcNAc
# Outline: as §1
# [16] = target: Fuc(a1-2)[Gal(a1-3)]Gal(b1-3)GlcNAc(b1-2)Man(a1-3)[Fuc(a1-2)[Gal(a1-3)]Gal(b1-3)GlcNAc(b1-2)Man(a1-6)]Man(b1-4)GlcNAc(b1-4)[Fuc(a1-6)]GlcNAc
# Outline: as §1
# [17] = target: Fuc(a1-2)[Gal(a1-3)]Gal(b1-3)GlcNAc(b1-3)GalNAc
# Outline: as §1
# [18] = target: Fuc(a1-2)[Gal(a1-3)]Gal(b1-3)GlcNAc(b1-6)GalNAc
# Outline: as §1
# [19] = target: Fuc(a1-2)[Gal(a1-3)]Gal(b1-4)Glc
# Outline: as §1
# [20] = target: Fuc(a1-2)[Gal(a1-3)]Gal(b1-4)GlcNAc
# Outline: as §1
# [21] = target: Fuc(a1-2)[Gal(a1-3)]Gal(b1-4)GlcNAc(b1-2)Man
# Outline: as §1
# [22] = target: Fuc(a1-2)[Gal(a1-3)]Gal(b1-4)GlcNAc(b1-2)Man(a1-3)[Fuc(a1-2)[Gal(a1-3)]Gal(b1-4)GlcNAc(b1-2)Man(a1-6)]Man(b1-4)GlcNAc(b1-4)GlcNAc
# Outline: as §1
# [23] = target: Fuc(a1-2)[Gal(a1-3)]Gal(b1-4)GlcNAc(b1-2)Man(a1-3)[Fuc(a1-2)[Gal(a1-3)]Gal(b1-4)GlcNAc(b1-2)Man(a1-6)]Man(b1-4)GlcNAc(b1-4)[Fuc(a1-6)]GlcNAc
# Outline: as §1
# [24] = target: Fuc(a1-2)[Gal(a1-3)]Gal(b1-4)GlcNAc(b1-3)GalNAc
# Outline: as §1
# [25] = target: Fuc(a1-2)[Gal(a1-3)]Gal(b1-4)GlcNAc(b1-3)[Fuc(a1-2)[Gal(a1-3)]Gal(b1-4)GlcNAc(b1-6)]GalNAc
# Outline: as §1
# [26] = target: Fuc(a1-2)[Gal(a1-3)]Gal(b1-4)GlcNAc(b1-6)GalNAc
# Outline: as §1
# [27] = target: Fuc(a1-2)[Gal(a1-3)]Gal(b1-4)[Fuc(a1-3)]Glc
# Outline: as §1
# [28] = target: Fuc(a1-2)[Gal(a1-3)]Gal(b1-4)[Fuc(a1-3)]GlcNAc
# Outline: as §1
# [29] = target: Fuc(a1-2)[Gal(a1-3)]Gal(b1-4)[Fuc(a1-3)]GlcNAc(b1-3)GalNAc
# Outline: as §1
# [30] = target: Fuc(a1-2)[Gal(a1-4)]Gal(b1-4)GlcNAc
# Outline: as §1
# [31] = target: Fuc(a1-2)[GalNAc(a1-3)]Gal
# Outline: as §1
# [32] = target: Fuc(a1-2)[GalNAc(a1-3)]Gal(b1-3)GalNAc(a1-3)[Fuc(a1-2)]Gal(b1-4)GlcNAc
# Outline: as §1
# [33] = target: Fuc(a1-2)[GalNAc(a1-3)]Gal(b1-3)GalNAc(b1-3)Gal(a1-4)Gal(b1-4)Glc
# Outline: as §1
# [34] = target: Fuc(a1-2)[GalNAc(a1-3)]Gal(b1-3)GlcNAc
# Outline: as §1
# [35] = target: Fuc(a1-2)[GalNAc(a1-3)]Gal(b1-3)GlcNAc(b1-2)Man(a1-3)[Fuc(a1-2)[GalNAc(a1-3)]Gal(b1-3)GlcNAc(b1-2)Man(a1-6)]Man(b1-4)GlcNAc(b1-4)GlcNAc
# Outline: as §1
# [36] = target: Fuc(a1-2)[GalNAc(a1-3)]Gal(b1-3)GlcNAc(b1-2)Man(a1-3)[Fuc(a1-2)[GalNAc(a1-3)]Gal(b1-3)GlcNAc(b1-2)Man(a1-6)]Man(b1-4)GlcNAc(b1-4)[Fuc(a1-6)]GlcNAc
# Outline: as §1
binder,measurement,setting,value
"Arath Fbox (Arabidopsis thaliana), NP_178341.1 (protein) EFTWGRKRRVKSESSPFDSFPEDCISYIISFTNPRDACVAATVSKTFESTVKSDIIWEKFLPADYESLIPPSRVFSSKKELYFSLCNDPVLFDDDKKSVWLEKASGKRCLMLSAMNLSIIWGDNPQYWQWIPIPESRFEKVAKLRDVCWFEIRGRTNTRVLSPRTRYSAYIVFKGVDKCYGFQNVAIEAAVGVVGQEPSRRLICFSEAIRRGRRNVVKPKQREDGWMEIELGEFFNDGGIMDNDEIEMSALETKQLNRKCGLIIQGIEIRPAKILAAAAASFLEQKLISEEDLNSAVDHHHHHH",glycan array binding signal (z-score),[1],-0.563
same,glycan array binding signal (z-score),[2],-0.138
same,glycan array binding signal (z-score),[3],0.048
same,glycan array binding signal (z-score),[4],-0.68
same,glycan array binding signal (z-score),[5],-0.484
same,glycan array binding signal (z-score),[6],0.864
same,glycan array binding signal (z-score),[7],-0.578
same,glycan array binding signal (z-score),[8],-0.505
same,glycan array binding signal (z-score),[9],-0.733
same,glycan array binding signal (z-score),[10],0.431
same,glycan array binding signal (z-score),Fuc(a1-2)Gal6S(b1-4)Glc,-0.186
same,glycan array binding signal (z-score),[11],0.627
same,glycan array binding signal (z-score),Fuc(a1-2)[Gal(a1-3)]Gal,0.399
same,glycan array binding signal (z-score),[12],-0.646
same,glycan array binding signal (z-score),[13],-0.596
same,glycan array binding signal (z-score),[14],1.07
same,glycan array binding signal (z-score),[15],-0.056
same,glycan array binding signal (z-score),[16],1.57
same,glycan array binding signal (z-score),[17],1.01
same,glycan array binding signal (z-score),[18],0.025
same,glycan array binding signal (z-score),[19],-0.216
same,glycan array binding signal (z-score),[20],-0.119
same,glycan array binding signal (z-score),[21],-0.611
same,glycan array binding signal (z-score),[22],0.263
same,glycan array binding signal (z-score),[23],0.1
same,glycan array binding signal (z-score),[24],-0.265
same,glycan array binding signal (z-score),[25],0.078
same,glycan array binding signal (z-score),[26],0.042
same,glycan array binding signal (z-score),[27],-0.725
same,glycan array binding signal (z-score),[28],0.357
same,glycan array binding signal (z-score),[29],0.217
same,glycan array binding signal (z-score),[30],0.262
same,glycan array binding signal (z-score),[31],-0.178
same,glycan array binding signal (z-score),[32],-0.696
same,glycan array binding signal (z-score),[33],-0.553
same,glycan array binding signal (z-score),[34],-0.159
same,glycan array binding signal (z-score),[35],-0.718
same,glycan array binding signal (z-score),[36],-0.681

# — the supplement of paper PMC8728848
